Among all 390,000 compounds or so, about 930 (0.24%) were called active. The inconclusive results got no clear call from the source; some entries with a clear call stand among them for comparison. The call rests on the fitted dose curve; in most records, active means well fitted activation curve with a large enough effect; inconclusive means small, poorly fitted or top-dose-only effect; inactive means no such curve, though single readings can be large or run the other way. Potencies of inconclusive entries are doubtful fits and often do not repeat.
Assay: qHTS for Suppressors of FUS Proteinopathy: Primary screen using FUS-linked yeast assay; further: nearly all actives have a fitted effect of over 55% in size;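 on growth rescue (activation): plate controls were DMSO vehicle for no effect and reference control for full effect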
Conditions: S. cerevisiae FUS-expressing, OD600, 24 h; Potency: growth rescue; growth rescue (activation): at 76.6 µM (top of the series)
How it was run: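 Compound concentration series was pinned onto galactose-induced FUS-expressing yeast seeded at OD 0.005. Plates sat 24hr at 30C; absorbance at 600 nm gave growth. DMSO served as background control.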
For `Cc1cnc(C(=O)N2CCCC(C(=O)c3cccc(OC(C)C)c3)C2)cn1` (stereo not drawn), the Potency was inconclusive: 39.8 µM [activator, single point].
For `CCOc1ccc(CCN2C(=S)N([C@@H](Cc3ccc(O)cc3)CN3CCC[C@@H]3CN3C(=S)NC[C@@H]3Cc3ccccc3)C[C@@H]2CC(C)C)cc1`, the Potency was inconclusive: 25.1 µM [activator, partial curve, poor fit].
With `Cc1nn2c(COc3ccc(NC(=O)C(C)C)cc3)nnc2c2ccccc12` the “growth rescue (activation)” value was inactive: 15.3%.
For `CCOc1cc(/C=C/c2ccc3cccc([N+](=O)[O-])c3n2)ccc1OCC(=O)N(C)C`, the “growth rescue (activation)” value was inactive: 45.3%.
In the case of `CCCCN(CCCC)S(=O)(=O)c1ccc(NS(=O)(=O)c2ccc(NC(C)=O)cc2)cc1`, the Potency is reported as inconclusive: 50.1 µM [activator, single point].
For `CC[C@@H](C)C(NC(=O)OC(C)(C)C)c1cn([C@@H](CCCCNC(=O)OC(C)(C)C)C(=O)N2CCN(C(=O)OC(C)(C)C)CC2)nn1` (stereo partly drawn), the “growth rescue (activation)” value was inactive: 41.2%.
In the case of `CCOc1ccc2[nH]c(=O)c(C(c3nnnn3Cc3ccco3)N3CCC(C)CC3)cc2c1` (stereo not drawn), the Potency is reported as inconclusive: 2.82 µM [activator, partial curve, poor fit].
In the case of `CCCCc1ccc(NS(=O)(=O)c2cc3c4c(c2)CC(=O)N4CCC3)cc1`, the Potency is reported as inconclusive: 31.6 µM [activator, partial curve, poor fit].
With `COc1cc(/C=C/C(=O)C2C(=O)C=C(C)OC2=O)cc(OC)c1O` (stereo not drawn) the Potency was inconclusive: 35.5 µM [activator, single point].
For `O=C(CC[C@H]1O[C@@H](n2cnc3c(NC(=O)c4ccccc4)ncnc32)[C@H](O)[C@@H]1O)NCC1CCCCC1`, the “growth rescue (activation)” value was inactive: -1.76%.
In the case of `C=CCNc1ncnc2c1ncn2[C@H]1CN(Cc2cccc3ccccc23)C[C@@H](CO)O1`, the Potency is reported as inconclusive: 25.1 µM [activator, single point].
In the case of `COc1ccc(S(=O)(=O)Nc2c(C(=O)O)[nH]c3ccccc23)cc1`, the “growth rescue (activation)” value is reported as inactive: -11.8%.
In the case of `CCc1ccccc1Nc1nn2c(=O)c3ccc(C(=O)NC(C)C)cc3nc2s1`, the “growth rescue (activation)” value is reported as inactive: -15.3%.
For `CCC(=O)N1CCCc2cc(S(=O)(=O)N3CCCc4ccccc43)ccc21`, the growth rescue (activation) was inconclusive: 86.3% [activator].
For `CCCC(=O)N1CCC[C@]2(CC[C@@H](CCC(C)=O)O2)C1`, the “growth rescue (activation)” value was inactive: -20.2%.
With `Cc1cccc(Cn2c(=O)n(-c3cc(C)cc(C)c3)c(=O)c3oc4ccccc4c32)c1` the “growth rescue (activation)” value was inactive: -12.2%.
With `NCCNc1ccc(C(=O)N2c3ccccc3Sc3ccccc32)cc1[N+](=O)[O-]` the Potency was inconclusive: 39.8 µM [activator, partial curve, poor fit].
For `Cc1cccc(N2CCN(CCCNC(=O)Cn3ncc4c([nH]c5ccccc54)c3=O)CC2C)c1` (stereo not drawn), the “growth rescue (activation)” value was inactive: -19.6%.
In the case of `Cc1cc(NC(=O)Cn2nc3c(cc2=O)CCCC3)ccc1Br`, the Potency is reported as inconclusive: 28.2 µM [activator, single point].
With `CCN(C(=O)c1ccco1)c1nc(CC(=O)Nc2ccc(Cl)cc2)cs1` the Potency was inconclusive: 25.1 µM [activator, partial curve, poor fit].
With `COc1ccc(Br)cc1C(=O)Nc1ccccc1N1CCN(C(=O)c2ccccc2)CC1` the Potency was inconclusive: 31.6 µM [activator, partial curve, poor fit].
With `Cn1c(-c2c(N)n(CCc3ccccc3)c3nc4ccccc4nc23)nc2ccccc21` the Potency was inconclusive: 20 µM [activator, partial curve].
With `COc1ccc(OC)c(S(=O)(=O)N2CCC(C(=O)Nc3ccc(C)c(C)c3)CC2)c1` the Potency was inconclusive: 50.1 µM [activator, partial curve, poor fit].
With `CC(C)N(C(=O)[C@H]1C[C@H](CC(=O)NC(C)(C)C)C(=O)N2CCc3c([nH]c4cc(-c5ccco5)ccc34)[C@]12C)C(C)C` the Potency was inconclusive: 25.1 µM [activator, single point].
For `COc1ccc(NC(=O)C2CCC(C(C)(C)C)CC2)cc1S(=O)(=O)N1CCOCC1` (stereo not drawn), the Potency was inconclusive: 44.7 µM [activator, single point].
For `Cc1ccc(NC(=S)NCc2ccc3[nH]c4c(c3c2)CCCC4)cc1`, the Potency was inconclusive: 35.5 µM [activator, single point].
In the case of `O=C1CC(c2ccco2)CC2=C1C=Nc1ccccc1N2` (stereo not drawn), the Potency is reported as inconclusive: 50.1 µM [activator, single point].
In the case of `COc1cc(C(=O)NCc2ccc3c(c2)CCN3C(=O)c2ccc(Cl)cc2)cc(OC)c1OC`, the “growth rescue (activation)” value is reported as inactive: -11.9%.
In the case of `Cc1ccc(NC(=O)CSc2nc(=O)n(Cc3ccccn3)c3c2CCC3)cc1F`, the Potency is reported as inconclusive: 28.2 µM [activator, single point].
In the case of `C#CCOCCOCCOCCNc1nc(N2CCN(C(=O)CCCCCCCCCCNC(=O)[C@H](CCCCN)n3cc(C)nn3)CC2)nc(N2CCN(C(=O)CCCCCCCCCCNC(=O)[C@H](CCCN=C(N)N)n3cc(C[C@@H](C)CC)nn3)CC2)n1`, the Potency is reported as inconclusive: 14.1 µM [activator, partial curve, poor fit].
In the case of `COC(=O)[C@]12CCCCC=C1N(Cc1cccc3ccccc13)C(=O)[C@H](CC(=O)NCCC(C)C)C2`, the Potency is reported as inconclusive: 35.5 µM [activator, single point].
In the case of `CCOC(=O)c1[nH]c(C)c(C(=O)N2CCN(c3ccccc3)CC2)c1C`, the Potency is reported as inconclusive: 25.1 µM [activator, partial curve, poor fit].
With `COCCNC(=O)c1c(NC(=O)c2cc(=O)c3cc(C)cc(C)c3o2)sc2c1CCCC2` the “growth rescue (activation)” value was inactive: -29.3%.
For `NC(c1csc(NC(=O)Nc2ccccc2Oc2ccccc2)n1)c1ccccc1Cl` (stereo not drawn), the Potency was inconclusive: 28.2 µM [activator, single point].
In the case of `O=C(OCCNC(=O)c1ccc2ccccc2n1)c1ccc(F)cc1`, the Potency is reported as inconclusive: 15.8 µM [activator, partial curve, poor fit].
In the case of `O=C(c1ncn(Cc2ccccc2)c1C(=O)N1CCN(c2ccccc2)CC1)N1CCN(c2ccccc2)CC1`, the Potency is reported as inconclusive: 25.1 µM [activator, partial curve, poor fit].
With `COc1cc(OC)cc(C2=Cc3ccc(OC)cc3C(CC(C)=O)N2c2ccc(C#CC3(N)CCCCC3)cc2)c1` (stereo not drawn) the Potency was inconclusive: 44.7 µM [activator, single point].
With `O=C(Nc1cccc(C(=O)OCc2cc(=O)n3c4c(sc3n2)CCCC4)c1)c1cccc(F)c1` the Potency was inconclusive: 20 µM [activator, single point].
With `COC(=O)C1=CN(c2ccc(C(C)(C)C)cc2)C(N)=C(C#N)C1c1cccc([N+](=O)[O-])c1` (stereo not drawn) the Potency was inconclusive: 35.5 µM [activator, single point].
For `Cc1ccc(S(=O)(=O)N2CC3(O)CN(C(=O)OC(C)C)N(C(=O)OC(C)C)CC3(OC(=O)NC3CCCC3)C2)cc1` (stereo not drawn), the Potency was inconclusive: 28.2 µM [activator, partial curve].
With `CCCOc1ccc(N2C(=O)CC(N3CCC(O)(c4cccc(C(F)(F)F)c4)CC3)C2=O)cc1` (stereo not drawn) the Potency was inconclusive: 39.8 µM [activator, single point].
For `O=C(Cn1cnc2cc([N+](=O)[O-])ccc2c1=O)Nc1cccc(S(=O)(=O)N2CCCCC2)c1`, the Potency was inconclusive: 31.6 µM [activator, single point].
In the case of `OCCOC1CCCc2oc(-c3ccccc3)c(C#CC3(O)CCCCC3)c21` (stereo not drawn), the “growth rescue (activation)” value is reported as inactive: 36.4%.
With `COc1ccc(OC)c(NC(=O)c2ccc(NC(C)=O)cc2)c1` the “growth rescue (activation)” value was inactive: 25%.
With `CC(C)c1ccc(NC(=O)c2cc(Br)ccc2Br)cc1` the “growth rescue (activation)” value was inactive: -30.2%.
In the case of `Cc1cc2c(c(C)c1Cl)C(c1ccc3c(c1)OCO3)CC(=O)O2` (stereo not drawn), the Potency is reported as inconclusive: 25.1 µM [activator, single point].
For `O=C(Cn1cnc2onc(-c3ccc(F)cc3)c2c1=O)N1CCN(c2ccc(F)cc2)CC1`, the “growth rescue (activation)” value was inactive: 3.05%.
For `N#C/C(=C\c1cccs1)c1nc2ccccc2[nH]1`, the Potency was inconclusive: 25.1 µM [activator, partial curve].
For `Cc1[nH]c2ccccc2c1/C=N/Nc1nc(Nc2ccccc2)nc(N2CCOCC2)n1`, the Potency was inconclusive: 35.5 µM [activator, single point].
For `CC(C)C[C@H]1CNC(=S)N1C[C@H]1CCCN1C[C@H](Cc1ccccc1)N1C[C@H](Cc2ccc(O)cc2)N(CC2CCCCCC2)C1=S`, the Potency was inconclusive: 44.7 µM [activator, single point].
For `O=c1cc(N2CCN(c3ccccc3)CC2)[nH]c(=O)n1-c1ccccc1Cl`, the Potency was inconclusive: 12.6 µM [activator, partial curve, poor fit].
For `CCC(Sc1nnc2c3ccccc3n(CC)c2n1)C(=O)Nc1ccc(NC(C)=O)cc1` (stereo not drawn), the “growth rescue (activation)” value was inactive: 4.76%.
In the case of `COc1ccc(NC2=CC(c3ccccc3)N(c3ccc(OC)cc3)C2=O)cc1` (stereo not drawn), the Potency is reported as inconclusive: 50.1 µM [activator, single point].
With `Cc1cccc(N2C(=O)N3[C@H](c4ccc(F)cc4)[C@@H]4C(=O)N(C5CCCCC5)C(=O)[C@@H]4[C@]3(Cc3ccccc3)C2=O)c1` the Potency was inconclusive: 17.8 µM [activator, partial curve, poor fit].
For `CSc1ccc(S(=O)(=O)N2CCC(C(=O)NCCCn3ccnc3)CC2)cc1`, the “growth rescue (activation)” value was inactive: 24.7%.
With `COC(=O)[C@]12C[C@H](CC(=O)NCc3cccs3)C(=O)N(CCC3=CCCCC3)C1=C[C@H](C1CCCC1)O[C@@H]2C` the Potency was inconclusive: 28.2 µM [activator, single point].
In the case of `COc1ccc(C2CC(c3c(-c4ccccc4)c4cc(Cl)ccc4[nH]c3=O)=NN2C(=O)CCC(=O)O)cc1` (stereo not drawn), the Potency is reported as inconclusive: 50.1 µM [activator, single point].
With `COC(=O)[C@]12CCCCC=C1N(Cc1cccc3ccccc13)C(=O)[C@H](CC(=O)N1CCSCC1)C2` the Potency was inconclusive: 35.5 µM [activator, single point].

Reference: PubChem BioAssay AID1347120 (National Center for Advancing Translational Sciences (NCATS), 2019)
Potency means the concentration at half of the fitted maximal effect; tags describe the fitted curve by direction and shape.
